{"source": "PubChem BioAssay AID1345083", "about": "(National Center for Advancing Translational Sciences (NCATS), 2018)", "note": "In all, about 94,000 compounds went through this assay and about 6,200 (6.6%) were called active. Inconclusive results, whose numbers are uncertain, are shown with a selection of clear calls. Calls come from the whole dose curve; as a rule, active = well fitted inhibition curve with a large enough effect; inconclusive = small, poorly fitted or top-dose-only effect; inactive = flat fitted curve, though single readings scatter. Potencies beside an inconclusive call are fits to weak or partial responses and may not hold up. % is set by controls: 0 for no effect and ±100 for the full control effect; potency is the fitted concentration of half-maximal effect; tags give direction and shape of the fitted curve."}
{"test": "Cytotoxic Profiling in HEK 293 Cell Line of Diverse Libraries Using Quantitative High-Throughput Screening; note: nearly all actives have a fitted effect of over 60% in size", "settings": "HEK 293 viability, ATP luminescence (CellTiter-Glo), 48-72 h; activity change, negative = cytotoxicity: at 115 µM (top of the series) unless noted; series mostly up to 115 µM", "summary_of_the_method": "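Pintool-delivered compounds were incubated with HEK 293 cells (250 cells/well) at 37 degree Celsius for 48 or 72 hr. ATP-dependent luminescence (CellTiter-Glo) then reported remaining viable cells.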"}
{"smiles": "Nc1nc(NCc2ccc(N3CCCC3=O)cc2)cc(C2CC(O)C2)n1", "note": "(stereo not drawn)", "Potency": "inconclusive: 28.2 µM [inhibitor, full curve, poor fit]"}
{"smiles": "CC1CCC2(CC1)NC(=O)N(CC(=O)Nc1cc(F)cc(F)c1)C2=O", "note": "(stereo not drawn)", "Potency": "inconclusive: 79.4 µM [inhibitor, single point]"}
{"smiles": "O[C@H]1CC[C@@H](Cc2cc(CN3CCN(c4ccccc4)CC3)on2)O[C@@H]1CNCc1ccccc1", "Potency": "inconclusive: 56.2 µM [inhibitor, partial curve, poor fit]"}
{"smiles": "O=C1COc2ccc(-c3ccncc3)nc2CN1CCOc1ccccc1", "Potency": "inconclusive: 89.1 µM [inhibitor, partial curve, poor fit]"}
{"smiles": "Cc1ccc(C)c(OCC(=O)c2ccc3c(c2)N(C(C)C(=O)NCC2CCCO2)C(=O)CO3)c1", "note": "(stereo not drawn)", "Potency": "active: 44.7 µM"}
{"smiles": "O=C(Nc1ccccc1F)NC1CCCN(CCn2nc3n(c2=O)CCCC3)C1", "note": "(stereo not drawn)", "activity change, negative = cytotoxicity": "inactive: 0.885%"}
{"smiles": "O[C@@H]1C[C@@H](c2nnc3n2CCN(Cc2cccc(F)c2)C3)N(Cc2ccccc2)C1", "Potency": "inconclusive: 89.1 µM [inhibitor, single point]"}
{"smiles": "CCOc1ccccc1CN1CCCN(Cc2ccncc2)C(c2ccccc2)CC(=O)NCC1", "note": "(stereo not drawn)", "Potency": "inconclusive: 44.7 µM [inhibitor, partial curve, poor fit]"}
{"smiles": "O=C(c1ccc(F)cc1Cl)N1CCC(Cc2nc(-c3ccc(F)cc3)no2)CC1", "Potency": "active: 31.6 µM"}
{"smiles": "C[C@@H]1C(=O)O[C@H]2[C@H]1CC[C@@]1(C)Cc3sc(Nc4ccc(C(=O)O)cc4)nc3[C@@H](C)[C@H]21", "activity change, negative = cytotoxicity": "inactive: -6.85% [at 172 µM]"}
{"smiles": "O=C(Nc1ccc(Cl)cc1)c1nc2c(o1)CCN(Cc1ccsc1)CC2", "Potency": "inconclusive: 112 µM [inhibitor, partial curve, poor fit]"}
{"smiles": "Cc1nc(-c2c3n(c(=O)n(CC(=O)NCc4ccc(F)cc4)c2=O)CCCCC3)no1", "activity change, negative = cytotoxicity": "inactive: -3.02%"}
{"smiles": "COc1ccccc1C(=O)NC[C@H]1Cn2c(-c3ccc4c(c3)OCCO4)cnc2CO1", "Potency": "inconclusive: 126 µM [inhibitor, single point]"}
{"smiles": "O=C(NCc1ccccc1F)c1cc(-c2cc(Cl)cc(Cl)c2)c2nncn2n1", "activity change, negative = cytotoxicity": "inactive: -19.2%"}
{"smiles": "Cc1nccn1-c1ccc(CNC(=O)C(c2ccc(F)cc2)N(C)C)cc1", "note": "(stereo not drawn)", "activity change, negative = cytotoxicity": "inactive: -29.5%"}
{"smiles": "Cc1ccc(-c2nnc([C@H]3CCN(C(=O)NC4CCCCC4)C3)o2)cc1", "Potency": "inconclusive: 89.1 µM [inhibitor, partial curve, poor fit]"}
{"smiles": "CC(C)NC(=O)c1nc(-c2ccc(Cl)cc2)c2ccccn12", "Potency": "inconclusive: 56.2 µM [inhibitor, partial curve, poor fit]"}
{"smiles": "CN(CC1CCOCC1)C(=O)Nc1cccc(Cl)c1", "activity change, negative = cytotoxicity": "inactive: -6.03%"}
{"smiles": "COc1ccc(C(=O)Nc2ccc(C(O)[C@H]3COCC(=O)N3CC(C)C)cc2)cc1", "note": "(stereo partly drawn)", "Potency": "inconclusive: 100 µM [inhibitor, partial curve, poor fit]"}
{"smiles": "O=C(O)c1cccc(CN2CC(COc3ccccc3)C3(C2)CN(c2ccccc2)C3)c1", "note": "(stereo not drawn)", "Potency": "inconclusive: 50.1 µM [inhibitor, partial curve, poor fit]"}
{"smiles": "O=C(NCCc1ccccc1)N(C1CCOCC1)C1CCN(CC2CCCCC2)CC1", "Potency": "inconclusive: 89.1 µM [inhibitor, single point]"}
{"smiles": "Cc1nc2cccnc2n1CC1CCCN(C(=O)Nc2ccccc2C(F)(F)F)C1", "note": "(stereo not drawn)", "activity change, negative = cytotoxicity": "inactive: -9.92%"}
{"smiles": "Cn1ncc2c(C(=O)NCCCNC(=O)OC(C)(C)C)cc(-c3ccc(F)cc3)nc21", "Potency": "inconclusive: 50.1 µM [inhibitor, partial curve, poor fit]"}
{"smiles": "CCc1ccc(N2CC(c3ncon3)CC2=O)cc1", "note": "(stereo not drawn)", "Potency": "inconclusive: 50.1 µM [inhibitor, partial curve, poor fit]"}
{"smiles": "O=C1COc2ccc(-c3ccccc3F)nc2CN1CCOc1ccccc1", "Potency": "inconclusive: 100 µM [inhibitor, partial curve, poor fit]"}
{"smiles": "Cc1ccc(-c2noc([C@@H]3C[C@@H](O)CN3CC3CC3)n2)cc1F", "Potency": "inconclusive: 100 µM [inhibitor, partial curve, poor fit]"}
{"smiles": "COc1cccc(CNC(=O)c2cccc3c2CCN3C(=O)c2ccc(F)cc2)c1", "Potency": "inconclusive: 56.2 µM [inhibitor, partial curve, poor fit]"}
{"smiles": "CCOC(=O)[C@@H]1CN(C(=O)OCC)[C@H]2c3ccc(OC)cc3O[C@@H]12", "Potency": "inconclusive: 79.4 µM [inhibitor, single point]"}
{"smiles": "CCN1c2cc(C(=O)NC3CCCCC3)ccc2C(=O)N2CCCCCC21", "note": "(stereo not drawn)", "Potency": "inconclusive: 70.8 µM [inhibitor, partial curve, poor fit]"}
{"smiles": "O=C([C@@H]1C[C@H](F)CN1C(=O)Nc1ccccc1)N1CCCCC1", "activity change, negative = cytotoxicity": "inactive: 0.832%"}
{"smiles": "O=C(Cc1ccc(Cl)cc1)NCC1COc2ncncc2C(=O)N1Cc1ccccc1", "note": "(stereo not drawn)", "Potency": "inconclusive: 112 µM [inhibitor, partial curve]"}
{"smiles": "CCC(=O)N1CCN(c2nc3c(s2)CC(C(=O)NCc2ccc(C)o2)CC3)CC1", "note": "(stereo not drawn)", "Potency": "inconclusive: 89.1 µM [inhibitor, partial curve, poor fit]"}
{"smiles": "Cc1cccc(C(=O)NCC2Cn3cccc3C(=O)N2Cc2ccccc2)c1", "note": "(stereo not drawn)", "Potency": "inconclusive: 50.1 µM [inhibitor, partial curve, poor fit]"}
{"smiles": "COCCN1CCCCCC(O)c2cc(C(=O)NCCc3cccnc3)ccc21", "note": "(stereo not drawn)", "outcome": "inactive"}
{"smiles": "Cn1ncc2c(C(=O)NCC3CC3)cc(-c3cccc(C(F)(F)F)c3)nc21", "outcome": "inactive"}
{"smiles": "O=C(NC1CCCC1)N1CCC(Oc2ccccc2-c2nc(-c3ccncc3)no2)C1", "note": "(stereo not drawn)", "Potency": "inconclusive: 79.4 µM [inhibitor, partial curve]"}
{"smiles": "CCN1c2cc(C(=O)NC3CCN(Cc4ccccc4)CC3)ccc2C(=O)N2CCCCC21", "note": "(stereo not drawn)", "Potency": "inconclusive: 79.4 µM [inhibitor, partial curve, poor fit]"}
{"smiles": "CCC1(N2CCN(S(=O)(=O)c3ccc(Cl)cc3C)CC2)CCN(C(=O)C(C)C)C1", "note": "(stereo not drawn)", "Potency": "inconclusive: 50.1 µM [inhibitor, partial curve, poor fit]"}
{"smiles": "COc1ncccc1CN1CCCC12Cc1ccccc1CNC2=O", "note": "(stereo not drawn)", "Potency": "inconclusive: 100 µM [inhibitor, partial curve, poor fit]"}
{"smiles": "O=C(NCC(F)(F)F)c1ccc2nc(-c3cccnc3)oc2c1", "Potency": "inconclusive: 126 µM [inhibitor, single point]"}
{"smiles": "O=C(Cc1ccccc1)NCC1CN(C(=O)Cc2cccc(C(F)(F)F)c2)CC12CN(c1ccccc1)C2", "note": "(stereo not drawn)", "Potency": "inconclusive: 79.4 µM [inhibitor, partial curve]"}
{"smiles": "O=C(c1ccc2cc[nH]c2c1)N1CCC(N2C(=O)C(OCC3CC3)C23CCOCC3)CC1", "note": "(stereo not drawn)", "Potency": "inconclusive: 89.1 µM [inhibitor, single point]"}
{"smiles": "O=C1NCCCCCCN(Cc2ccc(C(F)(F)F)cc2)[C@H]2CCC[C@@H]12", "Potency": "active: 39.8 µM"}
{"smiles": "O=C(c1ccccc1F)N1CCCC(C(=O)N2CCC(c3nc4ccncc4[nH]3)C2)C1", "note": "(stereo not drawn)", "outcome": "inactive"}
{"smiles": "O=C1COc2ccc(-c3ccccc3)nc2CN1Cc1ccccc1F", "Potency": "inconclusive: 100 µM [inhibitor, partial curve, poor fit]"}
{"smiles": "CCOC(=O)[C@@H]1[C@@H](O)C(=O)N(C)C12CCN(C(=O)c1cccc(C#N)c1)CC2", "activity change, negative = cytotoxicity": "inactive: -9.32%"}
{"smiles": "CCc1noc(-c2cn(C3CCN(C(=O)c4ccc(C(C)(C)C)cc4)C3)nn2)n1", "note": "(stereo not drawn)", "Potency": "inconclusive: 35.5 µM [inhibitor, partial curve, poor fit]"}
{"smiles": "CC(C)CN[C@H]1CO[C@H]2[C@@H]1OC[C@@H]2Nc1nccc(-c2cccs2)n1", "Potency": "inconclusive: 56.2 µM [inhibitor, partial curve, poor fit]"}
{"smiles": "COc1ccc(-c2cc(-c3ccc4cn[nH]c4c3)cn3cncc23)cc1", "Potency": "active: 70.8 µM"}
{"smiles": "COc1ccccc1Nc1ccnc(N2CCC(C(=O)N3CCCC3)CC2)n1", "Potency": "inconclusive: 50.1 µM [inhibitor, partial curve, poor fit]"}
{"smiles": "COc1ccc(-c2ccc3c(n2)CN(Cc2ccccc2)C(=O)CO3)cc1F", "Potency": "active: 79.4 µM"}
{"smiles": "O=C1Cc2c(-c3ccccc3Cl)n[nH]c2CN1Cc1ccccn1", "activity change, negative = cytotoxicity": "inactive: -13.3% [at 172 µM]"}
{"smiles": "CCOC(=O)[C@H]1C[C@]2(CCCCN(CCOC)C2=O)N(C(=O)c2ccco2)[C@H]1c1ccco1", "Potency": "inconclusive: 44.7 µM [inhibitor, partial curve, poor fit]"}
{"smiles": "CCN1c2cc(C(=O)Nc3cccc(C(F)(F)F)c3)ccc2C(=O)N2CCCC21", "note": "(stereo not drawn)", "Potency": "inconclusive: 56.2 µM [inhibitor, partial curve, poor fit]"}
{"smiles": "Cc1cccc(-c2ccccc2CN)c1", "activity change, negative = cytotoxicity": "inactive: -26.6% [at 172 µM]"}
{"smiles": "O=C(c1nnn2cc(-c3ccccc3)[nH]c(=O)c12)N1CCCCCC1", "activity change, negative = cytotoxicity": "inactive: 8.87%"}
{"smiles": "C#CCNC(=O)c1ccc2oc(-c3cccnc3OC)nc2c1", "activity change, negative = cytotoxicity": "inactive: -20.1%"}
{"smiles": "COc1ccc(-c2noc(-c3nnn4c3COC(c3ccc(C)cc3C)C4)n2)cc1OC", "note": "(stereo not drawn)", "activity change, negative = cytotoxicity": "inactive: 6.38%"}
{"smiles": "Cc1ccc(CCNC(=O)c2ccc3c(c2)N(C)C2CCCCN2C3=O)cc1", "note": "(stereo not drawn)", "Potency": "inconclusive: 56.2 µM [inhibitor, partial curve, poor fit]"}
{"smiles": "COc1ccc(Cl)cc1NC(=O)Cn1c(-c2ccc(F)cc2)nc(C)c(CCO)c1=O", "Potency": "inconclusive: 50.1 µM [inhibitor, partial curve]"}
{"smiles": "COc1ccc(C(=O)N[C@@H]2CCC[C@@H]2C(=O)N2CCN(c3ccccc3OC)CC2)cc1", "Potency": "inconclusive: 89.1 µM [inhibitor, partial curve]"}
{"smiles": "COc1ccc(-c2[nH]nc3ncc(C(=O)NCc4ccccc4)nc23)c(C)c1", "Potency": "inconclusive: 112 µM [inhibitor, partial curve, poor fit]"}
{"smiles": "Cc1cccnc1CN(C)C(=O)c1ccc2nc(-c3ccccc3)cn2c1", "Potency": "inconclusive: 79.4 µM [inhibitor, partial curve, poor fit]"}
